Measured values published in the BET-seq Pho4 binding data (Le et al. 2018).
The list shows a part of the results. These are noisy estimates, calculated here from bound and input reads.

The sequences below were run against T1, Pho4 (S. cerevisiae) (UniProt P07270) (assay: relative binding free energy (BET-seq); higher = weaker binding). Details: reference: library average.
T1 sequence: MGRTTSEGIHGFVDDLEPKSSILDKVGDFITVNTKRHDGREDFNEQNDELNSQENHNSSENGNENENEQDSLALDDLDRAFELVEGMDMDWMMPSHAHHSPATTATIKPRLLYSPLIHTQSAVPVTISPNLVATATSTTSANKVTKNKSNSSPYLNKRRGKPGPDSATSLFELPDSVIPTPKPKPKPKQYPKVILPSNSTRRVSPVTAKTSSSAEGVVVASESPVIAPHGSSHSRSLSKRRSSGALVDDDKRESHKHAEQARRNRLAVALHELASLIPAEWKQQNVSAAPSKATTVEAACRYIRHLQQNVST

Sequence | relative binding free energy [kcal/mol]
CGAGTCACGTGTGTGT | 0.12
TTTTGCACGTGATTGG | 0.11
TAGGTCACGTGGCTTT | -0.06
AGGTTCACGTGGCTTT | 0.3
TAGGGCACGTGGTGCT | -0.23
ATTAGCACGTGCTTGT | -0.16
AGTACCACGTGGTAGG | -0.1
TGAGTCACGTGAGTAT | 0.28
TTCAACACGTGTTGGA | 0.18
ATTGCCACGTGGTAGA | -0.13
GTAAGCACGTGTGGCT | 0.1
TAGGTCACGTGTATGG | 0.07
GTTTACACGTGTGCAA | 0.35
TTAGTCACGTGAGATG | 0.42
GGTTACACGTGTCGTA | 0.13
TCTTGCACGTGTGGTT | 0.03
AGAGACACGTGTAGGG | -0.01
ATGAGCACGTGTTAAG | -0.14
CAGGTCACGTGCTTGT | 0.06
CCGGTCACGTGTTGTT | 0.09
TTATTCACGTGTGGCG | 0.31
GAGTTCACGTGTGATA | 0.4
TTAAACACGTGGAGCG | 0.17
ATTTTCACGTGAGTCT | 0.35
GGGGTCACGTGTAGGA | 0.2

Sequence | relative binding free energy [kcal/mol]
GTATACACGTGGGTAT | 0.08
TGGGACACGTGACCGG | 0.29
TAGGGCACGTGTCCGG | -0.15
GCTGCCACGTGTGGGT | 0
ATATGCACGTGGACTT | 0.02
GTCTGCACGTGAAAGT | 0.41
GCGTTCACGTGTTTAG | 0.27
GGGGTCACGTGTGCTT | 0.12
GAGAGCACGTGGGAGG | -0.07
TGGAACACGTGGTGTA | -0.13
CGTGTCACGTGAGGTA | 0.27
TTGATCACGTGGTATA | 0.02
ATTTCCACGTGTGGGG | 0.03
GTGTGCACGTGTTTCA | -0.07
TGTTGCACGTGCGTTG | 0.04
ATGTGCACGTGGGGCG | -0.16
GGTAGCACGTGTCATT | -0.07
GCTATCACGTGTGGTG | 0.2
GGGTGCACGTGTTAGT | 0.05
GAAGGCACGTGGAGCT | 0.06
GAGTGCACGTGGCGGC | -0.17
GGTTGCACGTGTCGTA | -0.04
TTTGTCACGTGATCCT | 0.25
GTCTTCACGTGTGGTC | 0.36
TAGGTCACGTGGAATG | 0.26

Sequence | relative binding free energy [kcal/mol]
ATGCACACGTGGAGTG | -0.01
TTTAGCACGTGTTATA | -0.04
TGCGGCACGTGTTCGT | -0.03
GGAGTCACGTGTGCGT | 0.03
TTATTCACGTGCTGAG | 0.24
GGGATCACGTGTCTTG | 0.17
TGCGGCACGTGGAATT | -0.01
AGAGCCACGTGTGGGT | -0.11
TCGGGCACGTGGTTGA | -0.15
TTTAACACGTGTTGGG | 0.08
GTGGTCACGTGATATT | 0.34
TGTGACACGTGGTCTC | -0.09
TGCGACACGTGGTATG | -0.08
AATGGCACGTGTTTGA | -0.16
AGGTCCACGTGCGGAG | 0
GCTGGCACGTGGTTAT | -0.21
TTGCGCACGTGATGGA | -0.02
GATGTCACGTGTAAAG | 0.09
GTTAACACGTGTGCGG | 0
AAGATCACGTGTTGTA | 0.1
GTGAGCACGTGGAGTG | -0.08
GTTGGCACGTGTCCGG | -0.01
GGTAACACGTGGAGCT | 0.14
TATTCCACGTGGGGAA | -0.01
TTGATCACGTGTTTGT | 0.1

Sequence | relative binding free energy [kcal/mol]
GTAATCACGTGGGAAG | 0.14
GGAATCACGTGATGTT | 0.29
CGGCTCACGTGGGATT | 0.13
GTGATCACGTGGTAGA | 0.11
ATAGACACGTGTGTGA | 0.05
TTGTACACGTGCGAGG | 0
TTCAGCACGTGAAGGG | 0.14
GTGGGCACGTGTGAAC | -0.09
GGTTACACGTGCTTAG | 0.14
GTATTCACGTGGAGTT | 0.33
TGATACACGTGAATAT | 0.32
AGTAACACGTGGTAGT | -0.13
GGAGGCACGTGTGACT | 0.01
AGGGACACGTGGCGTG | -0.25
GGAGGCACGTGCAGGA | -0.19
GCTGTCACGTGTGGTT | 0.19
GAGCTCACGTGGTGTT | 0.24
TGCAACACGTGGGTCG | -0.02
GGGAACACGTGGACGT | 0.1
GCGGTCACGTGTGTAA | 0.06
GGTGGCACGTGGTAGA | -0.16
TATGACACGTGTGGTC | 0.13
TGGTTCACGTGCTAAT | 0.17
ATTTGCACGTGGTGAG | -0.1
TGCGGCACGTGGTTAG | -0.17

Sequence | relative binding free energy [kcal/mol]
TTTATCACGTGTGATC | 0.11
ATTCGCACGTGTGTTT | -0.04
GTAGTCACGTGTTTAG | 0.14
TTGGTCACGTGGCGCA | 0.04
TGTTTCACGTGGAATA | 0.27
AGCGACACGTGGCGGT | -0.07
TCGTTCACGTGTTGAG | 0.26
AGTGTCACGTGAAGTA | 0.19
TTAATCACGTGTCGGA | 0.18
GGAGGCACGTGGAATG | -0.16
TTACTCACGTGTGGGC | 0.19
GGCGTCACGTGGTGCT | 0.06
TATTTCACGTGTCATA | 0.29
TTACTCACGTGTATGG | 0.22
TGCTGCACGTGGGTTA | -0.12
TTGAGCACGTGGTAAA | -0.19
TTCGTCACGTGGAGAT | 0.01
GTATGCACGTGCGGTA | -0.1
AGGCTCACGTGTATGT | 0.19
TATTACACGTGAGGTA | 0.33
GGGGTCACGTGCGGAT | 0.08
CGGGGCACGTGTTCAG | -0.12
TGTGGCACGTGATCGA | -0.15
GTCGTCACGTGTAAGG | 0.25
GTTTCCACGTGGTCGG | 0.16

Sequence | relative binding free energy [kcal/mol]
GTCGTCACGTGTCGGA | 0.2
CGGGTCACGTGCAGGG | 0
TCGATCACGTGAGGTT | 0.56
GTAGGCACGTGGGTGT | -0.12
TGCTACACGTGATATG | 0.25
CTGTGCACGTGCGGGT | -0.02
GTTGGCACGTGTCAGA | -0.03
TTATGCACGTGTGCTA | -0.1
CGTGGCACGTGAGTTG | 0.08
TCTATCACGTGGGGAT | 0.16
AATGGCACGTGGTCGG | -0.16
AGTTGCACGTGAGCAT | 0.12
TTAAGCACGTGTTTTC | -0.11
ATCTTCACGTGTGTTT | 0.25
GATGGCACGTGGGAGC | -0.16
TAGGACACGTGTATGA | -0.02
TCTTTCACGTGTAATG | 0.3
GGGTTCACGTGGATGT | 0.34
TACATCACGTGGGGTG | -0.07
GTGGACACGTGTTAGA | 0.12
AGGGTCACGTGCATTG | 0.04
